Measured values as given in PubChem BioAssay AID2546 (National Center for Advancing Translational Sciences (NCATS), 2010).
Screen size: about 310,000 compounds; about 11,000 (3.5%) were called active. This list was built around the results that the source calls inconclusive (neither active nor inactive); the mix of calls is not that of the screen. Calls come from the whole dose curve; as a rule, active = well fitted inhibition curve with a large enough effect; inconclusive = small, poorly fitted or top-dose-only effect, or effect the other way; inactive = flat fitted curve, though single readings scatter. No potency is given beside an inconclusive call; the fits are too rough.

Assay: VP16 counterscreen qHTS for inhibitors of ROR gamma transcriptional activity;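 note: Gal4-VP16 expression switched on by copper sulfate through the metallothionein promoter; nearly all actives have a fitted effect of over 50% in size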
Settings: Drosophila S2 Gal4-VP16 UAS-luciferase, luminescence, 20 h; activity, negative = inhibition: at 53.6 µM (top of the series)
% is set by controls: 0 for no effect and ±100 for the full control effect; potency is the fitted concentration of half-maximal effect; tags give direction and shape of the fitted curve.

| Structure (SMILES) | activity, negative = inhibition | Potency |
| --- | --- | --- |
| C#CCN1C(=O)C(O)(CC(=O)c2ccc(OC)c(OC)c2)c2ccccc21 (stereo not given) | inactive: -2.41% | – |
| CCn1c(=N)n(CC(=O)C(C)(C)C)c2ccccc21 | – | active: 3.16 µM |
| CCCCCCN1C=CC(=C2C(=O)c3ccccc3C2=O)C=C1 | inactive: -9.39% | – |
| CN(C)c1ccc(C(=O)N/N=C/c2ccccn2)cc1 | – | inconclusive [inhibitor, single point] |
| CCOc1ccc(/C=N/Nc2ccccn2)cc1OC | – | inconclusive [inhibitor, single point] |
| CCCc1cc(C(=O)NCCc2ccc(OC)c(OC)c2)no1 | – | inconclusive [inhibitor, single point] |
| C/C(=N\OCc1nc2ccccc2c(=O)n1/N=C/c1cc([N+](=O)[O-])ccc1O)c1ccccc1 | – | inconclusive [inhibitor, single point] |
| Cc1ccc(CNc2ccc(O)cc2)cc1 | – | inconclusive [inhibitor, single point] |
| O=C(/C=C/c1cccnc1)c1cc(F)ccc1O | – | inconclusive [inhibitor, single point] |
| Cc1ccnc(N=Cc2c(O)ccc3oc4c(c23)CCCC4)c1 | – | inconclusive [inhibitor, single point] |
| CCN(CC)c1ccc(/C=N/NC(=O)c2cnccn2)cc1 | inactive: -3.96% | – |
| Cn1c(/C(C#N)=C/C2CC=CCC2)nc2ccccc21 (stereo not given) | – | inconclusive [inhibitor, single point] |
| Cc1cc(O)ccc1NC(=O)CCN1C(=O)c2ccc([N+](=O)[O-])cc2C1=O | – | inconclusive [inhibitor, single point] |
| CCCn1c(C(CO)Nc2nc(-c3cccc(Br)c3)cs2)nc2ccccc21 (stereo not given) | – | inconclusive [inhibitor, single point] |
| CN1C(=O)/C(=C/c2ccc(-c3ccccc3[N+](=O)[O-])o2)SC1=Nc1ccc(Cl)c(C(=O)O)c1 | – | inconclusive [activator, single point] |
| Cc1ccc(S(=O)(=O)N2CCC(C(=O)N[C@@H](C)C(=O)Nc3ccc4c(c3)OCO4)CC2)cc1 | – | inconclusive [inhibitor, single point] |
| O=C(Nc1ccccc1C(=O)Nc1nnc(C(F)(F)F)s1)c1ccccc1Cl | – | active: 15.8 µM |
| CC(C)C(NC(=O)CNC(=O)OC(C)(C)C)C(=O)NCc1ccccc1 (stereo not given) | inactive: 3.44% | – |
| Cc1cc(SCC(=O)N/N=C/c2ccc(O)cc2O)nc2ccccc12 | – | inconclusive [inhibitor, single point] |
| Cc1ccc(C)c(NC(=S)N(C)CCc2ccccn2)c1 | – | inconclusive [inhibitor, single point] |
| CC(NS(=O)(=O)c1ccc(CCC(=O)NCC2CCCO2)cc1)c1ccccc1 (stereo not given) | – | inconclusive [inhibitor, single point] |
| CCc1cc2c(=O)[nH]c(N3CCOCC3)nc2s1 | – | inconclusive [activator, single point] |
| Cc1cc(CN(C)C(=O)CC2C(=O)NCCN2Cc2c(F)cccc2Cl)n[nH]1 (stereo not given) | inactive: 7.08% | – |

| Structure (SMILES) | activity, negative = inhibition | Potency |
| --- | --- | --- |
| CCOc1cccc(/C=N/NC(=O)c2cc(C3CC3)[nH]n2)c1O | – | active: 2.82 µM |
| Cc1ccc(-n2nc3c(N4CCC(C(=O)NCCc5ccccc5C)CC4)nnc(C)c3c2C)cc1 | – | inconclusive [inhibitor, single point] |
| COC(=O)c1ccccc1NC(=O)Nc1cccs1 | – | inconclusive [inhibitor, partial curve] |
| O=C(Nc1nc2c(s1)CCCC2)c1cccs1 | – | inconclusive [inhibitor, single point] |
| COc1ccc(Cl)cc1NC(=S)N1CCC(c2ccc(C)cc2)C1 (stereo not given) | inactive: -16.9% | – |
| N#CC1=C(N)N2C(=C(C#N)C13CCCCC3)SC1CCCCC12O (stereo not given) | – | inconclusive [activator, partial curve] |
| CS(=O)(=O)NCCCCNc1ccc(C(F)(F)F)cc1[N+](=O)[O-] | – | inconclusive [inhibitor, single point] |
| O=C1ON=C(c2ccccc2)/C1=C/c1ccc(-c2ccccc2[N+](=O)[O-])o1 | – | active: 10 µM |
| Cc1cc(C)c(S(=O)(=O)NCC23C=CC(O2)C2C(=O)N(c4ccccc4)C(=O)C23)c(C)c1 (stereo not given) | – | inconclusive [inhibitor, single point] |
| COc1ccc(/C(C)=N\Nc2nc(-c3ccc(Cl)cc3)cc(C(F)(F)F)n2)cc1OC | – | inconclusive [activator, single point] |
| CCOC(=O)N1CCN(S(=O)(=O)c2ccc(C(=O)N(CCN(C)C)c3nc4ccc(CC)cc4s3)cc2)CC1 | inactive: -3.38% | – |
| NCCCNC(=O)Cn1c(=O)c2c3c(sc2n(Cc2ccccc2)c1=O)CCCC3 | inactive: -6.69% | – |
| O=C(NC1=NCCS1)c1ccc(Cl)c(S(=O)(=O)N2CCc3ccccc32)c1 | – | inconclusive [inhibitor, single point] |
| CCCn1nnc2c(=O)oc3ccccc3c21 | – | inconclusive [activator, single point] |
| CCc1nnc(N/N=C/c2c(F)cccc2Cl)n1N | – | inconclusive [inhibitor, single point] |
| COc1cc(NC(=O)CSCC(=O)Nc2cccc(C(F)(F)F)c2)c(Cl)cc1Cl | – | inconclusive [inhibitor, single point] |
| CCCNC(=S)Nc1ccccc1 | – | inconclusive [inhibitor, single point] |
| CN1CCN(c2ccc(S(=O)(=O)N3CCCCC3)cc2NC(=O)c2ccc3ccccc3c2)CC1 | – | active: 8.91 µM |
| O=C(Nc1ccccc1Cl)c1ccccc1 | inactive: -7.03% | – |
| CCCCC1CCC(c2nc(-c3ccccn3)no2)CC1 (stereo not given) | – | active: 12.6 µM |
| CCOc1ccc2nc(C)cc(Nc3ccc4c(c3)OCCO4)c2c1 | – | inconclusive [inhibitor, single point] |
| COCCOC(=O)c1c(C)nc(SCC(=O)Nc2ccc(OC)cc2)c(C#N)c1-c1ccco1 | inactive: -5.83% | – |
